Hit rate of the full screen: of about 340,000 compounds, about 20 (0.006%) were called active. The inconclusive results got no clear call from the source; some entries with a clear call stand among them for comparison. Calls come from the whole dose curve; as a rule, active = well fitted inhibition curve with a large enough effect; inconclusive = small, poorly fitted or top-dose-only effect; inactive = no such curve, though single readings can be large or run the other way. Potencies of inconclusive entries are doubtful fits and often do not repeat.
The molecules below were run against Sphingomyelin phosphodiesterase (Homo sapiens) (UniProt P17405) (assay: Inhibitors of Secretory Acid Sphingomyelinase (S-ASM): qHTS). Settings: placental ASM, HMU-PC fluorogenic substrate (series up to 57.5 µM), 60 min.
In short: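 Fluorogenic HMU-PC substrate (9 uM final) is turned over by placental ASM in 60 min at 37 C after a 10 min compound preincubation. Reaction ended by alkaline stop (pH 10), with fluorescence read at 386/447 nm.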
Potency is the fitted concentration of half-maximal effect; tags give direction and shape of the fitted curve.

Sequence of UniProt P17405 (P17405 whole entry, looked up): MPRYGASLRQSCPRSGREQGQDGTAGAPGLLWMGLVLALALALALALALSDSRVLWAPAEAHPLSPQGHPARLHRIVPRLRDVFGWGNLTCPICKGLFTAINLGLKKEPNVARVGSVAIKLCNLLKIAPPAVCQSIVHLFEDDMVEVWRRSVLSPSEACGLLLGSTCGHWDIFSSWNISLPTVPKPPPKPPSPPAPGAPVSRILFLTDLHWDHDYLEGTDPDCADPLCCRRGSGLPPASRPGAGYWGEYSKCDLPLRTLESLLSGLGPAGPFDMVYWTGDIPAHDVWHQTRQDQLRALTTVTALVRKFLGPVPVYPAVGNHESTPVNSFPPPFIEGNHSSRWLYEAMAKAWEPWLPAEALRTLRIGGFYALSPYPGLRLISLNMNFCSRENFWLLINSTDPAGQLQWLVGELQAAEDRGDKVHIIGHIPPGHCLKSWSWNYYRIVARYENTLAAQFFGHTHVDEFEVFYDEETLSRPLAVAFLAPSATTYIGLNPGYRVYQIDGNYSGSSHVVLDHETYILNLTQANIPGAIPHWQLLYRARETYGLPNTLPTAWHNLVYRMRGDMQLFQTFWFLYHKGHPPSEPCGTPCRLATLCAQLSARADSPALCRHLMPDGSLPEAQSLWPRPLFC

Row | Structure (SMILES) | Potency
1 | Cc1c(CCOC(=O)CC23CC4CC(CC(C)(C4)C2)C3)sc[n+]1CC(=O)c1ccccc1 | inconclusive: 126 µM [inhibitor, partial curve, poor fit]
2 | Cc1ccc(NC(=S)N2CCC(NC(=O)c3ccc(F)cc3)CC2)cc1C | inactive
3 | CCOC(=O)C(CC)n1cnc2c(nnn2-c2ccc(OC)cc2)c1=O (stereo not drawn) | inactive
4 | CCCC(=O)NC(c1ccccc1)c1ccc2cccnc2c1O (stereo not drawn) | inactive
5 | Cc1[nH]c(-c2ccc(F)cc2)cc1C(=O)N1CCN(c2ccc(Cl)cc2)CC1 | inconclusive: 79.4 µM [inhibitor, partial curve]
6 | CC1=NN(c2ccc(Cl)cc2)C(=O)/C1=C\c1cccn1-c1ccc(S(N)(=O)=O)cc1 | inconclusive: 79.4 µM [inhibitor, single point]
7 | CCOc1ccc(NC(=O)c2cn(-c3ccc(OCC)cc3)c(=O)c3cc(OC)c(OC)cc23)cc1 | inconclusive: 89.1 µM [inhibitor, partial curve, poor fit]
8 | CCCOC(=O)c1ccc(NC(=O)c2cc(OC)c(OC)c(OC)c2Br)cc1 | inconclusive: 100 µM [inhibitor, partial curve, poor fit]
9 | CC1(NCc2ccc(Cl)cc2)COP(=O)(NCc2ccccc2)OC1 (stereo not drawn) | inconclusive: 70.8 µM [inhibitor, partial curve]
10 | Cc1ccc(Nc2c([N+](=O)[O-])cc(C(=O)N3CC(=O)Nc4ccccc43)cc2[N+](=O)[O-])c(C)c1 | inconclusive: 126 µM [inhibitor, partial curve, poor fit]
11 | C/C=C/c1ccc(OCC(=O)Nc2cc(OC)c(OC)c(OC)c2)c(OC)c1 | inconclusive: 316 µM [inhibitor, partial curve, poor fit]
12 | O=C(Oc1ccc2c3c(c(=O)oc2c1)CCCC3)c1cccs1 | inactive
13 | O=C(Nc1ccc(Br)cc1)c1cnc[nH]1 | inactive
14 | CC(=O)NN1C(=O)/C(=C/c2ccc(C(C)C)cc2)SC1=S | inconclusive: 79.4 µM [inhibitor, single point]
15 | Cc1cccc(N2C(N)=C(C#N)C(C#N)(C#N)C2c2ccccc2)c1 (stereo not drawn) | inconclusive: 126 µM [inhibitor, partial curve, poor fit]
16 | Cc1ccccc1NS(=O)(=O)c1nnc(NC(=O)c2ccccc2F)s1 | inconclusive: 251 µM [inhibitor, partial curve, poor fit]
17 | Cc1cc(Br)ccc1NC(=O)CN1C(=O)C2C3CC(c4ccccc4)C(C3)C2C1=O (stereo not drawn) | inconclusive: 1580 µM [inhibitor, partial curve, poor fit]
18 | COc1ccc(S(=O)(=O)Nc2ccccc2OC)cc1C | inactive
19 | C[C@H]1CN([C@@H](C)CO)C(=O)c2cccc(NC(=O)Nc3ccc(C(F)(F)F)cc3)c2O[C@@H]1CN(C)Cc1ccc(Cl)c(Cl)c1 | inconclusive: 63.1 µM [inhibitor, partial curve, poor fit]

Row | Structure (SMILES) | Potency
20 | COc1ccc(NC(=S)N=Nc2c(O)[nH]c3ccccc23)cc1 | inconclusive: 126 µM [inhibitor, partial curve, poor fit]
21 | Cc1cc2oc(=O)cc(CN(C)Cc3cccc(F)c3)c2cc1Cl | inconclusive: 398 µM [inhibitor, partial curve, poor fit]
22 | O=C(OC12CC3CC(CC(C3)C1)C2)c1ccc(NCc2cc(O)ccc2O)cc1 | inconclusive: 282 µM [inhibitor, partial curve, poor fit]
23 | Cc1ccc(-c2noc(CCC(=O)NCCCN3CCN(c4cccc(Cl)c4)CC3)n2)cc1 | inactive
24 | N#CCCn1cc(/C=N/NC(N)=S)c(-c2ccc(-c3ccccc3)cc2)n1 | inconclusive: 15.8 µM [inhibitor, single point]
25 | Cn1cccc1/C=C1\SC(=S)N(NC(=O)c2ccc(Cl)cc2)C1=O | inconclusive: 79.4 µM [inhibitor, partial curve, poor fit]
26 | CCOC(=O)C1=C(N)Oc2cc(O)ccc2C1c1ccc(Br)cc1 (stereo not drawn) | inconclusive: 100 µM [inhibitor, partial curve, poor fit]
27 | Cc1cc(C(F)F)n2nc(C(=O)Nc3ccc(S(=O)(=O)NC45CC6CC(CC(C6)C4)C5)cc3)nc2n1 | inconclusive: 112 µM [inhibitor, partial curve, poor fit]
28 | O=C(/C=C/c1ccccc1Cl)N(Cc1ccccc1)C1CCS(=O)(=O)C1 (stereo not drawn) | inactive
29 | O=C1c2ccccc2C(=O)N1CCCCc1cn(C[C@H]2CC[C@@H]([C@@H]3CC[C@H](Cn4cc(CCCCN5C(=O)c6ccccc6C5=O)nn4)O3)O2)nn1 | inactive
30 | O=C(Nc1cccc(OC(=O)c2ccc(Br)o2)c1)c1ccccc1 | inconclusive: 316 µM [inhibitor, partial curve, poor fit]
31 | CN(C)/C=C/C(=O)c1cccc(Cl)c1 | inactive
32 | COc1ccc(-c2cc(C3CCN(c4cc(Cl)nc(N)n4)CC3)[nH]n2)cc1 | inconclusive: 100 µM [inhibitor, partial curve, poor fit]
33 | CCN(CC)c1ccc(C(=C2C=CC(=[N+](CC)CC)C=C2)c2ccc(N(CC)CC)cc2)cc1 | inconclusive: 39.8 µM [inhibitor, partial curve, poor fit]
34 | CCOc1ccccc1N(CC(=O)Nc1ccc(S(=O)(=O)N2CCOCC2)cc1)S(=O)(=O)c1ccccc1 | inactive
35 | CSc1nsc2nc(=O)c(/C=C3\C(C)=Nc4ccccc43)c(N)n12 | inconclusive: 79.4 µM [inhibitor, single point]
36 | COc1ccc(N=C2SC(CC(=O)Nc3cccc(Cl)c3)C(=O)N2Cc2ccco2)cc1 (stereo not drawn) | inconclusive: 89.1 µM [inhibitor, single point]
37 | CC(C)c1ccc2c(c1)c(SC(C)(C)C)c(CC(C)(C)C(=O)O)n2Cc1ccc(Cl)cc1 | inconclusive: 112 µM [inhibitor, partial curve, poor fit]
38 | Cn1cccc1/C=C1\SC(=S)N(NC(=O)c2ccccc2Cl)C1=O | inconclusive: 79.4 µM [inhibitor, partial curve, poor fit]
